# This is one part of the list.
# B1: Clone730PsrP (Streptococcus pneumoniae) (protein)
# chain: MDHHHHHHHHHHASENLYFQGAMVVGSQTAAATEATAKKVEEDRKKPASDYVASVTNVNLQSYAKRRKRSVDSIEQLLASIKNAAVFSGNTIVNGAPAINASLNIAKSETKVYTGEGVDSVYRVPIYYKLKVTNDGSKLTFTYTVTYVNPKTNDLGNISSMRPGYSIYNSGTSTQTMLTLGSDLGKPSGVKNYITDKNGRQVLSYNTSTMTTQGSGYTWGNGAQMNGFFAKKGYGLTSSWTVPITGTDTSFTFTPYAARTDRIGINYFNGGGKVVESSTT
# Tests used:
# Assay in all cases: glycan array binding signal (z-score within array); higher = stronger binding
# Settings in all cases: glycan notation: IUPAC condensed, linker removed
# [1] = target: Fuc(a1-2)Gal(b1-4)GlcNAc(b1-3)Gal(b1-4)GlcNAc(b1-3)Gal(b1-4)GlcNAc
# How it was run: (§1)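 Glycan array data were curated from 3228 arrays in the Consortium for Functional Glycomics database and kept only where the protein sequence was available. Glycan names were converted to IUPAC-condensed notation, and columns mapping to the same glycan were averaged. The binding signal is a within-array Z-score, averaged across arrays of the same protein sequence at different concentrations or buffers and across linkers. Negative Z-scores can be read as non-binding.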
# [2] = target: Fuc(a1-2)Gal(b1-4)GlcNAc(b1-3)GalNAc
# How it was run: as §1
# [3] = target: Fuc(a1-2)Gal(b1-4)GlcNAc(b1-3)[Fuc(a1-2)Gal(b1-4)GlcNAc(b1-6)]GalNAc
# How it was run: as §1
# [4] = target: Fuc(a1-2)Gal(b1-4)GlcNAc(b1-3)[Fuc(a1-3)[Gal(b1-4)]GlcNAc(b1-6)]Gal(b1-4)Glc
# How it was run: as §1
# [5] = target: Fuc(a1-2)Gal(b1-4)GlcNAc(b1-6)GalNAc
# How it was run: as §1
# [6] = target: Fuc(a1-2)Gal(b1-4)GlcNAc6S
# How it was run: as §1
# [7] = target: Fuc(a1-2)Gal(b1-4)[Fuc(a1-3)]GlcNAc
# How it was run: as §1
# [8] = target: Fuc(a1-2)Gal(b1-4)[Fuc(a1-3)]GlcNAc(b1-2)Man(a1-3)[Fuc(a1-2)Gal(b1-4)[Fuc(a1-3)]GlcNAc(b1-2)Man(a1-6)]Man(b1-4)GlcNAc(b1-4)[Fuc(a1-6)]GlcNAc
# How it was run: as §1
# [9] = target: Fuc(a1-2)Gal(b1-4)[Fuc(a1-3)]GlcNAc(b1-2)[Fuc(a1-2)Gal(b1-4)[Fuc(a1-3)]GlcNAc(b1-4)]Man(a1-3)[Fuc(a1-2)Gal(b1-4)[Fuc(a1-3)]GlcNAc(b1-2)Man(a1-6)]Man(b1-4)GlcNAc(b1-4)GlcNAc
# How it was run: as §1
# [10] = target: Fuc(a1-2)Gal(b1-4)[Fuc(a1-3)]GlcNAc(b1-3)Gal(b1-4)[Fuc(a1-3)]GlcNAc
# How it was run: as §1
# [11] = target: Fuc(a1-2)Gal(b1-4)[Fuc(a1-3)]GlcNAc(b1-3)Gal(b1-4)[Fuc(a1-3)]GlcNAc(b1-3)Gal(b1-4)[Fuc(a1-3)]GlcNAc
# How it was run: as §1
# [12] = target: Fuc(a1-2)Gal(b1-4)[Fuc(a1-3)]GlcNAc(b1-3)GalNAc
# How it was run: as §1
# [13] = target: Fuc(a1-2)Gal(b1-4)[Fuc(a1-3)]GlcNAc(b1-3)[Neu5Ac(a2-6)Gal(b1-4)GlcNAc(b1-6)]Gal(b1-4)Glc
# How it was run: as §1
# [14] = target: Fuc(a1-2)Gal3S(b1-4)GlcNAc
# How it was run: as §1
# [15] = target: Fuc(a1-2)Gal6S(b1-3)GlcNAc
# How it was run: as §1
# [16] = target: Fuc(a1-2)Gal6S(b1-3)GlcNAc6S
# How it was run: as §1
# [17] = target: Fuc(a1-2)Gal6S(b1-4)Glc
# How it was run: as §1
# [18] = target: Fuc(a1-2)Gal6S(b1-4)Glc6S
# How it was run: as §1
# [19] = target: Fuc(a1-2)[Gal(a1-3)]Gal
# How it was run: as §1
# [20] = target: Fuc(a1-2)[Gal(a1-3)]Gal(b1-3)GalNAc
# How it was run: as §1
# [21] = target: Fuc(a1-2)[Gal(a1-3)]Gal(b1-3)GalNAc(b1-3)Gal(a1-4)Gal(b1-4)Glc
# How it was run: as §1
# [22] = target: Fuc(a1-2)[Gal(a1-3)]Gal(b1-3)GlcNAc
# How it was run: as §1
# [23] = target: Fuc(a1-2)[Gal(a1-3)]Gal(b1-3)GlcNAc(b1-2)Man(a1-3)[Fuc(a1-2)[Gal(a1-3)]Gal(b1-3)GlcNAc(b1-2)Man(a1-6)]Man(b1-4)GlcNAc(b1-4)GlcNAc
# How it was run: as §1
# [24] = target: Fuc(a1-2)[Gal(a1-3)]Gal(b1-3)GlcNAc(b1-2)Man(a1-3)[Fuc(a1-2)[Gal(a1-3)]Gal(b1-3)GlcNAc(b1-2)Man(a1-6)]Man(b1-4)GlcNAc(b1-4)[Fuc(a1-6)]GlcNAc
# How it was run: as §1
# [25] = target: Fuc(a1-2)[Gal(a1-3)]Gal(b1-3)GlcNAc(b1-3)GalNAc
# How it was run: as §1
# [26] = target: Fuc(a1-2)[Gal(a1-3)]Gal(b1-3)GlcNAc(b1-6)GalNAc
# How it was run: as §1
# [27] = target: Fuc(a1-2)[Gal(a1-3)]Gal(b1-4)Glc
# How it was run: as §1
# [28] = target: Fuc(a1-2)[Gal(a1-3)]Gal(b1-4)GlcNAc
# How it was run: as §1
# [29] = target: Fuc(a1-2)[Gal(a1-3)]Gal(b1-4)GlcNAc(b1-2)Man
# How it was run: as §1
# [30] = target: Fuc(a1-2)[Gal(a1-3)]Gal(b1-4)GlcNAc(b1-2)Man(a1-3)[Fuc(a1-2)[Gal(a1-3)]Gal(b1-4)GlcNAc(b1-2)Man(a1-6)]Man(b1-4)GlcNAc(b1-4)GlcNAc
# How it was run: as §1
binder,measurement,setting,value
B1,glycan array binding signal (z-score),[1],-0.43
same,glycan array binding signal (z-score),[2],0.263
same,glycan array binding signal (z-score),[3],-0.13
same,glycan array binding signal (z-score),[4],-0.648
same,glycan array binding signal (z-score),[5],1.79
same,glycan array binding signal (z-score),[6],-0.272
same,glycan array binding signal (z-score),[7],-0.389
same,glycan array binding signal (z-score),[8],-0.276
same,glycan array binding signal (z-score),[9],-0.022
same,glycan array binding signal (z-score),[10],-0.547
same,glycan array binding signal (z-score),[11],0.285
same,glycan array binding signal (z-score),[12],-0.079
same,glycan array binding signal (z-score),[13],0.031
same,glycan array binding signal (z-score),[14],-0.452
same,glycan array binding signal (z-score),[15],0.156
same,glycan array binding signal (z-score),[16],1.57
same,glycan array binding signal (z-score),[17],-0.11
same,glycan array binding signal (z-score),[18],-0.405
same,glycan array binding signal (z-score),[19],-0.101
same,glycan array binding signal (z-score),[20],0.717
same,glycan array binding signal (z-score),[21],0.43
same,glycan array binding signal (z-score),[22],0.133
same,glycan array binding signal (z-score),[23],-0.478
same,glycan array binding signal (z-score),[24],0.874
same,glycan array binding signal (z-score),[25],-0.333
same,glycan array binding signal (z-score),[26],0.086
same,glycan array binding signal (z-score),[27],0.235
same,glycan array binding signal (z-score),[28],0.008
same,glycan array binding signal (z-score),[29],0.272
same,glycan array binding signal (z-score),[30],-0.217
